Assay results reported in PubChem BioAssay AID1345082 (National Center for Advancing Translational Sciences (NCATS), 2018).
Out of some 94,000 compounds screened, about 4,000 (4.3%) were called active. The inconclusive results got no clear call from the source; some entries with a clear call stand among them for comparison. The call rests on the fitted dose curve; in most records, active means well fitted inhibition curve with a large enough effect; inconclusive means small, poorly fitted or top-dose-only effect; inactive means no such curve, though single readings can be large or run the other way. Where the call is inconclusive, the potency comes from a doubtful curve fit.

Assay: Cytotoxic Profiling in NIH 3T3 Cell Line of Diverse Libraries Using Quantitative High-Throughput Screening; further: nearly all actives have a fitted effect of over 55% in size
Conditions: NIH 3T3 viability, CellTiter-Glo ATP luminescence, 48-72 h; series mostly up to 96.7 µM
In short: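 Cytotoxicity was measured by CellTiter-Glo ATP luminescence after 48 or 72 h compound exposure at 37 °C. Mouse NIH 3T3 fibroblasts were seeded at 400 cells/well and dosed by 23 nL pin transfer.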
Potency means the concentration at half of the fitted maximal effect; tags describe the fitted curve by direction and shape.

| Compound | Potency |
| --- | --- |
| CN(Cc1cnn(-c2ccccc2)c1)Cc1cc2ccccc2[nH]c1=O | inactive |
| O=C1CCCN1CCCN1C(=O)[C@H]2CN(Cc3cccs3)C[C@H]2C1=O | inactive |
| O=C(c1cc(F)ccc1F)N1CCC2(CC1)CC(N(Cc1ccccc1)C1CC1)CCO2 (stereo not given) | inconclusive: 50.1 µM [inhibitor, partial curve, poor fit] |
| CCOc1ccc(NC(=O)C2CCN(C(=O)c3ncn4c3COC(c3ccccc3)C4)CC2)cc1 (stereo not given) | inactive |
| Cn1cnnc1CC1CCN(C(=O)NC2CCCCC2)C1 (stereo not given) | inconclusive: 70.8 µM [inhibitor, single point] |
| COc1ccc(F)cc1-c1ccc(CN2CCC(N[S+](=O)([O-])c3ccc(NC(C)=O)cc3)C2)cc1 (stereo not given) | inconclusive: 50.1 µM [inhibitor, partial curve, poor fit] |
| O=C(NCc1ccc2c(c1)OCO2)C1CCN(c2nccc(Nc3ccccc3Cl)n2)CC1 | active: 35.5 µM |
| Cc1ccccc1-c1[nH]nc2ncc(-c3cnn(C)c3)nc12 | inconclusive: 17.8 µM [inhibitor, full curve, poor fit] |
| CCn1c(-c2ccccc2)nn(CC(=O)N(C)C(C)c2ccon2)c1=O (stereo not given) | inactive |
| CC(=O)N1CCO[C@@H](COc2ccccn2)[C@@H]1c1ccccc1 | inactive |
| COC(=O)[C@H]1CN(S(C)(=O)=O)CCN1S(C)(=O)=O | inactive |
| COc1ccc(-c2ccc(C(=O)NCc3cccnc3)cc2)nn1 | active: 8.91 µM |
| CCCc1cc(-c2nc3c([nH]2)CC(c2ccccc2OC)CNC3=O)on1 (stereo not given) | inconclusive: 44.7 µM [inhibitor, partial curve, poor fit] |
| CCOc1ccccc1C(=O)NCc1nnc2ccc(-c3ccc(C)cc3)nn12 | inconclusive: 79.4 µM [inhibitor, partial curve, poor fit] |
| O=C(NCc1ccc2c(c1)OCO2)C1(c2ccc(Cl)cc2)CCOCC1 | inactive |
| COc1ccccc1Nc1ccnc(N2CCC(C(=O)NCC3CC3)CC2)n1 | inconclusive: 35.5 µM [inhibitor, partial curve] |
| COc1ccc(OCC2(C)COc3ccc(C(=O)Nc4ccn(C)n4)cc3N2)cc1 (stereo not given) | inconclusive: 89.1 µM [inhibitor, partial curve, poor fit] |
| Cc1nc2c(c(-c3ccc(O)cc3)n1)CN(C(=O)c1ccccc1C)CC2 | inactive |
| Cn1cc(-c2ccc(O)c(F)c2)c2nc(CN3CCOCC3)cn2c1=O | inconclusive: 56.2 µM [inhibitor, partial curve, poor fit] |
| COCc1nc(-c2ccc(OC3CN(C(=O)C(C)Oc4ccccc4)C3)cc2)no1 (stereo not given) | inconclusive: 35.5 µM [inhibitor, partial curve] |
| COCCN1CCCCCC(O)c2cc(C(=O)N(C)CCCc3c(C)nn(C)c3C)ccc21 (stereo not given) | inconclusive: 39.8 µM [inhibitor, partial curve, poor fit] |
| CCc1ccccc1OCCN1CCN(c2ccc(C#N)cc2)C(=O)C1 | inconclusive: 28.2 µM [inhibitor, partial curve] |

| Compound | Potency |
| --- | --- |
| NC(=O)C1CCCN(Cc2ccc(-c3cnc4c(OCc5ccccc5)nccn34)cc2)C1 (stereo not given) | active: 39.8 µM |
| CN(C)c1ccc(CN2CC[C@H](c3nc4c(C(N)=O)cccc4[nH]3)C2)cc1 | active: 100 µM |
| Cc1nc(CN2C(=O)OC3(CCN(CCCc4ccccc4)CC3)C2(C)c2ccccc2)cs1 (stereo not given) | inconclusive: 70.8 µM [inhibitor, single point] |
| Cc1nn(-c2ccccc2)c2c1C(C)N(C1CCCN(C(=O)C3CC3)C1)C2=O (stereo not given) | inactive |
| CN(C)[C@H]1CCCCN(C(=O)c2cccc(-c3cccc(F)c3)c2)C1 | inconclusive: 50.1 µM [inhibitor, partial curve, poor fit] |
| COCCN1C(=O)[C@@H]2C[C@@H](CN2C(=O)c2ccc(Cl)cc2)Oc2ccccc21 | inconclusive: 100 µM [inhibitor, single point] |
| O=c1c2c(nc3cc[nH]n13)CN(S(=O)(=O)c1cccc(C(F)(F)F)c1)CC2 | inconclusive: 70.8 µM [inhibitor, single point] |
| Cc1c(-c2ccc(F)cc2)[nH]c2ccc(CNCc3cnn(C)c3)cc12 | active: 39.8 µM |
| Cc1ccccc1C(=O)N1CCC2(CC1)CN(c1ncccn1)CC2CO (stereo not given) | inactive |
| CN1CCN(C(=O)C2(C)CCCc3cnc(Nc4ccccc4)nc32)CC1 (stereo not given) | inconclusive: 100 µM [inhibitor, partial curve, poor fit] |
| COc1ccc(CCNC(=O)CNC(=O)c2ccc(-c3cnc4ccccc4c3)cc2)cc1 | inactive |
| CCOCCCNC(=O)N1[C@@H]2CC[C@H]1CC(NC(=O)c1ccc(F)cc1)C2 (stereo not given in full) | inactive |
| CN(C)C(=O)NC1CCCN(c2ccc3nnc(C4CC4)n3n2)C1 (stereo not given) | inactive |
| COc1ccc(OC)c(CNC(=O)C2(c3ccc(NC(C)=O)cc3)CCCCC2)c1 | inconclusive: 70.8 µM [inhibitor, single point] |
| O[C@@H]1C[C@@H](c2nc(-c3ccc4c(c3)OCO4)no2)N(Cc2ccccc2)C1 | inconclusive: 112 µM [inhibitor, partial curve, poor fit] |
| Cc1ccc(C2Cn3nnc(-c4nc(-c5ccccc5Br)no4)c3CO2)c(C)c1 (stereo not given) | inactive |
| O=C1CC(c2ccccc2)N(C(=O)CNC(=O)c2[nH]nc3c2COc2ccccc2-3)CCCCCN1 (stereo not given) | inconclusive: 44.7 µM [inhibitor, partial curve, poor fit] |
| CC(C)c1ccc(CNC(=O)CCC2CCN(C(=O)c3ccccc3F)CC2)cc1 | inconclusive: 44.7 µM [inhibitor, partial curve, poor fit] |
| CC(C)CC(=O)N1CCc2c(c(-c3nncn3C(C)C)nn2C)C1 | inactive |
| Cc1ccsc1-c1[nH]nc2ncc(-c3c(C)noc3C)nc12 | inconclusive: 63.1 µM [inhibitor, partial curve, poor fit] |
| CCC(CC)NC(=O)[C@H]1CN(Cc2ccccc2)C[C@H]1C(=O)O | inactive |
| O=C(Cc1cccc(Cl)c1)N1CCc2nc(-c3ccccc3)nc(-c3ccc(Cl)cc3)c2C1 | inconclusive: 50.1 µM [inhibitor, partial curve, poor fit] |

| Compound | Potency |
| --- | --- |
| O=C(CCc1c[nH]c2ccccc12)Nc1cccc(-c2nnc3n2CCCC3)c1 | inconclusive: 50.1 µM [inhibitor, partial curve, poor fit] |
| O=C(Nc1nccs1)[C@@H]1C[C@H](c2ccc(F)cc2)N(Cc2ccccc2Cl)C1 | active: 31.6 µM |
| Cn1ncc2c(C(=O)NC3CCOCC3)cc(-c3cccc(C(F)(F)F)c3)nc21 | inconclusive: 56.2 µM [inhibitor, partial curve, poor fit] |
| O=C1Cc2c(-c3ccccc3Cl)n[nH]c2CN1CC1CC1 | inconclusive: 100 µM [inhibitor, partial curve, poor fit] |
| Cc1ccc(NC(=O)COc2ccc(-c3nnc4n3CCCC4)cc2)cc1F | inconclusive: 44.7 µM [inhibitor, partial curve, poor fit] |
| c1ccc(-c2cc3c(ccn3Cc3ccncc3)c(N3CCOCC3)n2)cc1 | inconclusive: 50.1 µM [inhibitor, partial curve, poor fit] |
| O=C1NCCCCCCN(C(=O)c2cc(CN3CCOCC3)on2)[C@H]2CCCC[C@@H]12 | inactive |
| Cc1ccc(F)cc1S(=O)(=O)N1C[C@@H](F)C[C@H]1C(=O)N1CCc2ccccc2C1 | inconclusive: 50.1 µM [inhibitor, partial curve, poor fit] |
| COc1cccc(CN2CCOC3CCN(C(=O)c4ccccc4)CC3C2=O)c1 (stereo not given) | inconclusive: 89.1 µM [inhibitor, partial curve, poor fit] |
| COC1CCN(C(=O)c2ccnc(-c3nnc4ccc(N(C)c5ccccc5)nn34)c2)CC1 | active: 3.55 µM |
| O=C(NCc1cccs1)C1CCN(Cc2ccccc2-c2ccccc2F)CC1 | inconclusive: 44.7 µM [inhibitor, partial curve] |
| O=C(NCCN1CCOCC1)c1nc2sccn2c1-c1ccncc1 | inactive |
| O=C1CCN(Cc2ccc(C(F)(F)F)cc2)CCCC(c2nc(-c3cccnc3)no2)CCN1 (stereo not given) | inconclusive: 39.8 µM [inhibitor, partial curve, poor fit] |
| COc1ccc(-c2cn3cc(C(=O)NCc4cccc(C(F)(F)F)c4)nc3s2)cc1 | inconclusive: 70.8 µM [inhibitor, single point] |
| COc1ccc(-c2cccc(C(=O)NC3CCOCC3)c2)nn1 | inconclusive: 89.1 µM [inhibitor, partial curve, poor fit] |
| COc1ccc(C(=O)N[C@@H]2CCC[C@@H]2C(=O)N2CCN(c3cccc(Cl)c3)CC2)cn1 | inconclusive: 44.7 µM [inhibitor, partial curve, poor fit] |
| Cn1nccc1C(=O)N1CCC(c2cc(-c3ccccc3)n[nH]2)CC1 | inconclusive: 25.1 µM [inhibitor, partial curve, poor fit] |
| Cc1noc(-c2ccccc2Cl)c1C(=O)NCCC(c1ccccc1)c1ccccc1 | active: 28.2 µM |
| Cc1ccccc1C(=O)NC1CCN(c2ccc3nnc(-c4ccccc4)n3n2)CC1 | inconclusive: 39.8 µM [inhibitor, partial curve, poor fit] |
| O=C(C1CCN(S(=O)(=O)N2CCOCC2)CC1)N1CCC(CCOc2ccc(F)cc2)C1 (stereo not given) | inconclusive: 28.2 µM [inhibitor, partial curve, poor fit] |
| COc1ccccc1CN1C[C@@H](CO)[C@H](c2ccccn2)C1 | inactive |
